Measurements reported in PubChem BioAssay AID1159614 (National Center for Advancing Translational Sciences (NCATS), 2016).
Out of some 45,000 compounds screened, about 65 (0.1%) were called active. Calls follow the shape of the dose curve; as a rule, active = well fitted activation curve with a large enough effect; inconclusive = small, poorly fitted or top-dose-only effect; inactive = no such curve, though single readings can be large or run the other way. The list shows a part of the results.

biological target: Galactocerebrosidase (Homo sapiens) (UniProt P54803); assay: A Novel Cell-Based Assay to Identify Small Molecules for B -Galactocerebrosidase; details: 145M-Twi-hGALC-G270D cells (Twitcher mouse brain line with human GALC G270D), HMU-beta-Gal fluorescence, 48 h; series mostly up to 57.5 µM; activation: at the top concentration; also: 0% is about no effect; nearly all actives have a fitted effect of over 65% in size
Procedure, shortened: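 Fluorescence readout: HMU-β-gal cleavage by mutant GALC (0.1 mM final, citrate/phosphate pH 5.2 with 1 mg/mL taurocholate), stopped with carbonate/bicarbonate plus Triton X-100. Cells: murine Twitcher 145M-Twi expressing human G270D GALC; qHTS for activators.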

Sequence of UniProt P54803 (P54803 whole entry, looked up): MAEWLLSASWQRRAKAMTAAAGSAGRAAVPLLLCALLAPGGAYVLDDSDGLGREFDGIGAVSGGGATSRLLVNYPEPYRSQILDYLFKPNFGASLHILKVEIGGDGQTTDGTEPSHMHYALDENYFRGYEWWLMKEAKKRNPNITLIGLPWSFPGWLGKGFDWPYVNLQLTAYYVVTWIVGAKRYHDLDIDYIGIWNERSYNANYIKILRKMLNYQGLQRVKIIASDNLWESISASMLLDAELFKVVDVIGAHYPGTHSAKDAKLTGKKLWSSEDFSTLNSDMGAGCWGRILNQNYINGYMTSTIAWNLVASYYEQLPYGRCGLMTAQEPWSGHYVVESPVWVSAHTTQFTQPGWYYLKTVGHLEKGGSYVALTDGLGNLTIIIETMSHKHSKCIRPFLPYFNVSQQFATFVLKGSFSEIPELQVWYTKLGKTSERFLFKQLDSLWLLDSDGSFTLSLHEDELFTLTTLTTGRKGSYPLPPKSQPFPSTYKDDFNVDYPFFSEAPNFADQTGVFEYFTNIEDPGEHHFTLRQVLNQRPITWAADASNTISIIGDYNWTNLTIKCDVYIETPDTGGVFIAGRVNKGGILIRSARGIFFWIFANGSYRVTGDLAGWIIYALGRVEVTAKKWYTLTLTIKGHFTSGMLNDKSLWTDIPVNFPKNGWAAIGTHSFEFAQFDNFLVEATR

activation, inactive:
COc1ccc(C2C(C(=O)Nc3ccccc3OC)=C(C)Nc3c(C(=O)Nc4ccccc4)cnn32)c(OC)c1 (centres undefined) 2.69%
Cc1ccc(CNC(=O)Nc2cn(CC(C)C)c(=O)c3ccccc23)cc1 -25%
Cc1ccnc(NC(=O)c2c(C)oc3ncn(CC(C)C)c(=O)c23)c1 -16.9%
CCc1ccc(-c2nc(CN3CCCC(C(=O)NCc4ccc(C)cc4)C3)c(C)o2)cc1 (centres undefined) -10.1%
CN1CCN(N)CC1 -14.9%
CCn1cc2nc(SCC(=O)Nc3ccccc3F)n(Cc3ccc(C)cc3)c(=O)c2n1 -13.9%
COc1ccc(-c2cc3nc(C)c(CCC(=O)Nc4cccc(C(F)(F)F)c4)c(C)n3n2)c(OC)c1 -9.32%
Cc1nnc(SCc2ccccc2Cl)c2cc3sccc3n12 -1.09%
O=C(Nc1sc2c(c1C(=O)Nc1ccc(Cl)cc1)CCCC2)c1cccs1 -3.82%
Cc1ccc(C(=O)Nc2ccccc2C(=O)O)cc1S(=O)(=O)N1CCCCCC1 -12.1%
CCCCCOc1ccc(NC(=O)Cc2csc(C)n2)cc1 -6.65%
COCC(C)NC(=O)c1cnn2c(C(F)F)cc(-c3ccccc3)nc12 (centres undefined) -11.1%
CN(C(=O)Cn1cc(S(=O)(=O)N2CCN(c3ccccc3F)CC2)c2ccccc2c1=O)c1ccc(Cl)cc1 -13.6%
O=C(NCCCN1CCN(c2ccccc2F)CC1)c1cc2c(Cl)nc3ccccc3c2s1 3.25%
Cc1cc(C)c(NC(=O)CN2c3ccccc3S(=O)(=O)c3ccccc32)c(C)c1 -10.4%
Clc1ccc2nsnc2c1NC1=NCCN1 -12.6%
CCOc1ccc(NC(=O)c2cnn(-c3ccc(C)c(Cl)c3)c2C2CCNCC2)cc1 -13.2%
COc1cc(OC)c(NC(=O)C(NS(=O)(=O)c2cccc3nsnc23)c2ccccc2)cc1Cl (centres undefined) -21.4%
Cc1ccc(CN2COc3cc(C)c4c(oc(=O)c5ccccc54)c3C2)cc1 -2.5%
CN1CCN(CCCNC(=O)Cn2c(-c3cccs3)cc3cc(Cl)ccc32)CC1 -14.3%
CCOc1cc(C2NC(=O)c3c(sc4c3CCN(C)C4)N2)ccc1OC(=O)c1ccccc1Cl (centres undefined) -13%
COc1ccc(-c2[nH]c(-c3ccccc3)nc2SCC(=O)Nc2ccc3c(c2)OCCO3)cc1 -13.1%
Cc1ccc2[nH]c(C(=O)Nc3ccccc3)cc2c1 -9.51%
O=C(NC1CC(=O)N(c2ccc3c(c2)OCCO3)C1)c1c(F)cccc1Cl (centres undefined) -5.46%
O=C(NCCc1csc(-c2ccc(F)cc2)n1)c1cccs1 -12.7%
COc1ccc(NC(=O)Cn2c(=O)cc(C)c3c(C)nn(-c4cccc(Cl)c4C)c32)cc1OC -10.9%
COc1ccc(-c2noc(CSc3nnc(Cc4ccccc4)n3-c3ccccc3)n2)cc1OC -34.8%
CCOC(=O)c1cc(-c2ccccc2)n(CC(=O)NC2CCC(C)CC2)c1C (centres undefined) -17.5%
CCOC(=O)c1cnc2c(ccc3ccccc32)c1Nc1ccccc1OC -49.8%
Cc1ccc(S(=O)(=O)CCC(=O)Nc2ccc(Br)cc2C)cc1 2.76%
Cc1ccc(NC(=O)CSc2nc3ccccc3c3nc(CCc4c(C)n[nH]c4C)nn23)c(C)c1 -12%
Cc1ccc(-c2nn(-c3ccc(F)cc3F)c3c2cnc2c(F)cccc23)cc1 7.67%
COCCNc1oc(-c2ccc(COc3ccc(OC)cc3)o2)nc1C#N -33.6%
Cc1ccc2c(c1)c(=O)c(C(=O)c1ccc3c(c1)OCO3)cn2Cc1cccc(F)c1 -11.2%
Cc1ccc(C(=O)CSc2ncc3c(n2)-c2ccccc2N(Cc2ccc(Cl)cc2)S3(=O)=O)cc1 -7.29%
CCc1ccc2oc(-c3cccc(NC(=O)c4cc5ccccc5o4)c3)nc2c1 -2.31%
CCCc1nn2c(=O)cc(COC(=O)c3ccc(NC(=O)CCc4ccccc4)cc3)nc2s1 -15.6%
Cc1ccccc1C(=O)Nc1nc2nc(C)c(C)c(=O)n2[nH]1 -0.579%
Cc1nc2c(C(=O)O)cnn2c(C)c1Cc1ccccc1 -13.9%
COc1cccc(NC(=O)c2sc3nc4n(c(=O)c3c2C)CCC4)c1 -6.8%
Cc1cc2cc3c(C)cc(=O)oc3c(C)c2o1 -9.57%
CC(=O)Nc1c(I)cc(I)c(C(=O)O)c1I -15.2%
CCCCOc1ccc(CNC(=O)c2ccc(-c3nc(CN4CCc5ccccc54)c(C)o3)cc2)cc1 -15.2%
CC(C)(C)c1ccc(O)c(O)c1 -12.3% [at 114 µM]
CCc1nc2nc(C)cc(Nc3ccc(OC)cc3)n2n1 3.38%
COc1cccc(CN(Cc2ccco2)c2cnc(S(C)(=O)=O)nc2C(=O)Nc2cccc(Cl)c2C)c1 -14%
Cn1c(SCC(=O)N2CCCc3ccccc32)ncc(C(=O)Nc2ccc(Cl)cc2)c1=O -12.4%
CCS(=O)(=O)N1CCC(C(=O)NCCC(C)C)CC1 3.85%
Cc1ccc(-c2nnc(Nc3cccc(Cl)c3)c3ccccc23)cc1S(=O)(=O)NCC1CCCO1 (centres undefined) -11%
CSCCC(NS(=O)(=O)c1ccc2c(c1)oc(=O)n2C)C(=O)NCCc1ccc(C)cc1 (centres undefined) 1.72%
CN(C1CCCCC1)S(=O)(=O)c1ccc2c(c1)c(=O)c(C(=O)NCCc1ccc(Cl)cc1)cn2C -22.8%
O=C(c1cccc([N+](=O)[O-])c1)N1c2ncnn2C2(CCCCC2)[C@@H]2CCCC[C@@H]21 -12.4%
CC(=O)Nc1ccc(S(=O)(=O)NC2(C(F)(F)F)NC(=O)N(c3ccc(C)cc3)C2=O)cc1 (centres undefined) -16.5%
Cc1ccc(S(=O)(=O)c2cnc(SCC(=O)Nc3ccc4c(c3)OCCO4)[nH]c2=O)cc1 -17.4%
O=S(=O)(NCCSc1nnnn1-c1ccccc1)c1ccc(F)cc1 -20.9%
Cc1ccc(-c2onc(C)c2C)cc1S(=O)(=O)NCc1ccco1 -7.19%
COc1cccc(OCCCCn2c(-c3ccc(Cl)cc3)nc3ccccc3c2=O)c1 -6.82%
O=c1[nH]cnc2nc[nH]c12 -7.31%
CCN(CC)c1ccc(NC(=O)CSc2nnc(C)c(=O)[nH]2)cc1 -14%
CCCN(CCC)C(=O)CSc1nnc2cc(C)c3cc(C)cc(C)c3n12 -0.699%
COc1ccc2c(c1)c1c(c(=O)n(-c3ccccc3C)c(=O)n1CC(=O)NCc1ccc(C)cc1)n2C -3.5%
Cc1cc(Nc2ccc(C)c(C)c2)n2cnnc2n1 -4.64%
Cc1ccc(S(=O)(=O)c2cnc(SCC(=O)Nc3cc(C)cc(C)c3)nc2N)cc1 -2.99%
Cc1cccc(OCc2ccc(-c3nc(C#N)c(NCCN(C)C)o3)o2)c1 -8.87%
